In all, about 310,000 compounds went through this assay and about 14,000 (4.5%) showed an effect of 50% or more. Effects have a minus sign here. Some of the results follow.
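Note: peak tail current of the secondary pulse compared with the same well before compound.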

In this experiment the target is human ether-à-go-go-related gene (hERG) potassium channel (human, UniProt Q12809). The experiment can be described thus: primary screen, population patch clamp on CHO cells stably expressing hERG.
Chain of human ether-à-go-go-related gene (hERG) potassium channel (Q12809 whole entry, looked up): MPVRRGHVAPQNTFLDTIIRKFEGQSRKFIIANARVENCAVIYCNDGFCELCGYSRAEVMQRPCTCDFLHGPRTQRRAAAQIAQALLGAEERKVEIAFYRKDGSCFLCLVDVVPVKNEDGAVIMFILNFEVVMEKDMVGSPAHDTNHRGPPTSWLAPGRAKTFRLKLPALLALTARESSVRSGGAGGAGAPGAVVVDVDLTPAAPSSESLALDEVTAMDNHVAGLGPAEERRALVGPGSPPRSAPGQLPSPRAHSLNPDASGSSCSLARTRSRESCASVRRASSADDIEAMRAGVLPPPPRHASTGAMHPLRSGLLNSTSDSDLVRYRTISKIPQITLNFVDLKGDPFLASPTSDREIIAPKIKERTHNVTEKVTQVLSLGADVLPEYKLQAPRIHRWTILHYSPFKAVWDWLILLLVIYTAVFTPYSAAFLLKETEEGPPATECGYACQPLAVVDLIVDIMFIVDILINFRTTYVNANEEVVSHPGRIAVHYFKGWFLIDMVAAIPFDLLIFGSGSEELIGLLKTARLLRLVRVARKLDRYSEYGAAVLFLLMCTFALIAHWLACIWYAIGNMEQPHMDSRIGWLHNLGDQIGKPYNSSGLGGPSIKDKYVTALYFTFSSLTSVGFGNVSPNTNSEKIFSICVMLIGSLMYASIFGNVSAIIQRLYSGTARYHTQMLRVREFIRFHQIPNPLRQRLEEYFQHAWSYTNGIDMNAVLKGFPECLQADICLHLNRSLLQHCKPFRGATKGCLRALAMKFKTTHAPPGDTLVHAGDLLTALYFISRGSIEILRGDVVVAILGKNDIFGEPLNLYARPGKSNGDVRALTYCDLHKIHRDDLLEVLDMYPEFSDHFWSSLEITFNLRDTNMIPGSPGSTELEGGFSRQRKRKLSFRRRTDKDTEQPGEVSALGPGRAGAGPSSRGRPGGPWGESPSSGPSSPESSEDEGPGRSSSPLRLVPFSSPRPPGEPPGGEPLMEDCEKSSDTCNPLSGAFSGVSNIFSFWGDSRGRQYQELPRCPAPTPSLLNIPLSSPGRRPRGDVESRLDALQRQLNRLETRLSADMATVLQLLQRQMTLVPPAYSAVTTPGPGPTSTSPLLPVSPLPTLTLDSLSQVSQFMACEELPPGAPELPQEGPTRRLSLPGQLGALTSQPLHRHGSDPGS
Consider `CCCNC(=O)Cn1cc(S(=O)(=O)N2CCCC2)c(S(=O)(=O)N2CCCC2)c1`, for which the “hERG current change (%, negative = inhibition) at 10uM” value worked out at 13.5%.
With `Cn1c(C(C)(O)C(O)c2ccccc2)nc2ccccc21` (centres unmarked) the figure was -34.6%; with `O=C(C[n+]1cccc2ccccc21)c1ccc(NC(=O)c2ccccc2)cc1.[Br-]`, 8.45%.
Consider `O=C(CN1C(=O)C2CC=CCC2C1=O)Nc1ccc(F)cc1F` (centres unmarked), for which the “hERG current change (%, negative = inhibition) at 10uM” value is reported as -2.27%.
With `COc1ccc(-n2nc(C(=O)NCC(=O)NCCCN3CC(C)CC(C)C3)c3ccccc3c2=O)cc1OC` (centres unmarked) the figure was -34%; with `Cc1c(-c2ccccc2)nc(N)c(C#N)c1-c1cccs1`, -20.6%; with `CNC(=O)CN1C(=O)c2ccccc2S1(=O)=O`, 11.4%.
With `O=C1CCc2cc(S(=O)(=O)N3CCN(C(=O)c4ccco4)CC3)ccc2N1` the figure was -37.2%; with `CC(=O)C(Sc1ccc2nnc(-c3cccnc3)n2n1)C(C)=O`, -2.29%; with `COc1ccc(N2C(=O)[C@@H]3[C@H](C2=O)[C@H]2c4ccccc4C=CN2[C@@H]3C(=O)Nc2ccccc2)cc1`, -10.5%.
For the compound `CCOC(=O)CSc1nnc(CNC(=O)c2cccs2)n1CCc1ccccc1`, the “hERG current change (%, negative = inhibition) at 10uM” value is recorded as -28.1%.
In the case of `CC1(C)CC(=O)C2=C(C1)Nc1ccccc1NC2c1ccc(F)cc1` (centres unmarked), the “hERG current change (%, negative = inhibition) at 10uM” value is 5.79%.
As for `COCCn1c(SCc2nnc(-c3ccc(OC)c(OC)c3)o2)nnc1-c1ccncc1`, the “hERG current change (%, negative = inhibition) at 10uM” value was 1.42%.
`Cc1ccccc1N/C(=C(/C(Cl)=C(Cl)Cl)[N+](=O)[O-])n1nnc2ccccc21`: the “hERG current change (%, negative = inhibition) at 10uM” value was -13.6%.
In the case of `CCC(=O)/C=C1\Sc2ccccc2N1CC`, the “hERG current change (%, negative = inhibition) at 10uM” value is -3.72%.
Under `CCCN(C(=O)COC(=O)CCOc1ccccc1C)c1c(N)n(Cc2ccccc2)c(=O)[nH]c1=O` stands -2.26%; under `CCCNS(=O)(=O)c1ccc(CCC(=O)N2CCN(c3ccc(OC)cc3)CC2)cc1`, -22.1%; under `OCCN1CCN(CC#CCC(c2ccccc2)c2ccccc2)CC1`, -22.9%.
Under `CN(CC#CC(O)(c1ccccc1)c1ccccc1)C(C)(C)C` stands -69%; under `COCc1cc(C)nc2sc(C(=O)N3CCCC3)c(N)c12`, 2.89%; under `COc1ccc(-n2nc3ccc(NS(C)(=O)=O)cc3n2)cc1Cl`, -8.42%.
With `COCCNC(=O)Cn1cnc([N+](=O)[O-])n1`, the “hERG current change (%, negative = inhibition) at 10uM” value stood at 6.93%.
Under `CC(Cc1ccccn1)NC(=O)c1ccc(OC2CCN(Cc3ccccn3)CC2)cc1` (centres unmarked) stands 11.2%.
With `CCN1CCN(c2ccc(S(=O)(=O)N3CCOCC3)cc2NC(=O)COc2ccc(F)cc2Cl)CC1` the figure was -24.4%.
Under `COCCN(C(=S)Nc1c(C)cccc1C)C(C)c1cccnc1` (centres unmarked) stands -28.2%; under `CCOC(=O)Cn1nc(NC(=O)c2cc(OC)cc(OC)c2)cc1C`, 2.85%; under `CCS(=O)(=O)N1CCN=C1SCc1ccccc1`, 14.8%.
Consider `O=[N+]([O-])/C(=C\Nc1ccccc1Cl)S(=O)(=O)c1ccccc1`, for which the “hERG current change (%, negative = inhibition) at 10uM” value worked out at 7.65%.
With `Clc1ccc(OCCN2CCOCC2)cc1`, the “hERG current change (%, negative = inhibition) at 10uM” value stood at 17%.
With `CCNC(=O)c1sc(-c2ccccc2)nc1C` the figure was -6.56%; with `Cc1ccc(C(=O)Nc2c(C(=O)NCc3ccco3)cnn2-c2ccccc2)cc1`, -29%; with `CC(C)CN(C(=O)CN1CCN(S(=O)(=O)c2ccccc2)CC1)c1c(N)n(CC(C)C)c(=O)[nH]c1=O`, -8.48%.
Under `O=C(NC(Cc1ccccc1)C(=O)O)/C(=C\c1ccccc1F)NC(=O)c1ccccc1` (centres unmarked) stands 24.2%; under `Cl.Nc1nc(N2CCN(C(=O)c3ccco3)CC2)nc2ccc(Br)cc12`, -59.5%.
For the compound `CC(C)c1ccc(N2C(=NC(=O)C3CCCO3)SC3CS(=O)(=O)CC32)cc1` (centres unmarked), the “hERG current change (%, negative = inhibition) at 10uM” value was -9.87%.
Under `COCCCNC(=O)C1=CCN(S(=O)(=O)c2ccc(OC)cc2)CC1` stands 9.69%; under `Cc1ccc(C(=O)Nc2nc(-c3ccc(F)cc3)cs2)o1`, -28.4%; under `O=C1CCCCC1Sc1nnc(Cc2cccs2)n1CCc1ccccc1` (centres unmarked), -30.9%.
Under `O=C(NCCCN1CCOCC1)c1ccc(S(=O)(=O)Nc2cccc(C(F)(F)F)c2)cc1` stands -12.8%; under `O=S(=O)(NCCOCC(F)(F)F)c1ccc2oc3ccccc3c2c1`, 3.1%; under `Cc1cc(C)cc(NC(=S)N=Nc2c(O)n(C)c3ccc(S(=O)(=O)N4CCOCC4)cc23)c1`, 1.36%.
Under `COc1ccc(NC(=O)COc2nc(N(C)C)nc(N(C)C)n2)cc1` stands 5.22%.
Turning to `CCSC1=NN2CCS(=O)(=O)N=C2S1`, the “hERG current change (%, negative = inhibition) at 10uM” value worked out at 39.8%.
With `CCOC(=O)N1CCN=C1SCc1ccc(C(F)(F)F)cc1` the figure was 2.02%.
With `Cn1c(=O)oc2cc(S(=O)(=O)N3CCC(C(=O)N4CCc5ccccc5C4)CC3)ccc21` the figure was 1.3%; with `Cc1ccsc1/C=N/NC(=O)c1ccc(-n2cccc2)cc1`, 10.2%; with `O=C(COC(=O)COc1ccc(Cl)cc1)NC1CCCCC1`, 14.3%.
For the compound `O=C(CN1C(=O)c2cccc3cccc1c23)Nc1cccnc1`, the “hERG current change (%, negative = inhibition) at 10uM” value is given as -7.98%.
Under `OC(c1ccccn1)(c1ccccn1)c1ccccn1` stands 18.3%; under `CCOC(=O)c1c(C)[nH]c(C(=O)N2CCCC(C(=O)c3cccc(OC)c3)C2)c1C` (centres unmarked), -8.55%; under `Cn1nccc1C(=O)N1CCN(C23CC4CC(CC(C4)C2)C3)CC1`, -4.65%.
Under `Fc1ccc2nc(Nc3nc4c(F)cccc4s3)sc2c1` stands 6.24%; under `O=S(=O)(c1ccccc1Cl)N1CCCC1c1nc(-c2ccccc2Cl)no1` (centres unmarked), 0.166%; under `C[C@]12CCC(=O)CC1CCC1C2CC[C@@]2(C)C1CC[C@@]21CCO1` (some centres unmarked), 7.65%.
Under `CNC(=S)N1CCN(c2c(F)cc3c(=O)c(C(=O)O)cn(C4CC4)c3c2OC)CC1C` (centres unmarked) stands 5.74%.
On to `O=C(O)CCc1ccc(-c2ccc(Cl)cc2)n1Cc1ccco1`, for which the “hERG current change (%, negative = inhibition) at 10uM” value was determined as 11.7%.
With `CCOC(=O)c1cccc(NC(=O)c2cc3ccccc3o2)c1` the figure was 1.39%.
Under `NS(=O)(=O)c1ccc(N2N=C(c3ccccc3)CC2c2cccc(F)c2)cc1` (centres unmarked) stands 0.467%; under `Cn1c(=O)[nH]c(=O)c2c1nc(N1CCNCC1)n2Cc1ccccc1`, -10.6%; under `COC(=O)c1cc(C(=O)N2CCOCC2)cc([N+](=O)[O-])c1`, 21.7%.
With `O=C(c1ccc([N+](=O)[O-])s1)N1CCc2ccccc2C1` the figure was 13%.
As for `COc1ccc(-c2nnc(SC(=O)N3c4ccccc4Sc4ccccc43)o2)cc1`, the “hERG current change (%, negative = inhibition) at 10uM” value was 18.3%.
With `COC(=O)CC1C(=O)NCCN1C(=O)c1sc2ccccc2c1Cl` (centres unmarked) the figure was 6.87%.
With `O=C(NCCCN1CCOCC1)c1onc(CSc2ccc(F)c(F)c2)c1C(=O)NCCCN1CCOCC1` the figure was -21.2%; with `NC(=O)c1ccc(NC(=O)CCC(=O)N2CCN(S(=O)(=O)c3ccc(Cl)cc3)CC2)cc1`, 9.22%.
Under `Cc1cc(OCC(=O)OCC(=O)N(C)Cc2ccccc2C)ccc1Cl` stands 7.91%.
For `COc1ccc(S(=O)(=O)NC2(C(F)(F)F)NC(=O)N(CCc3ccccc3)C2=O)cc1` (centres unmarked), the “hERG current change (%, negative = inhibition) at 10uM” value is listed as 13.3%.
`COc1ccccc1C(=O)NCC1CCN(c2ccc(S(=O)(=O)N3CCOCC3)cc2)CC1`: the “hERG current change (%, negative = inhibition) at 10uM” value was -47.1%.
With `Cc1nn(Cc2ccccc2)c(C)c1CNC(=O)[C@H](C)N=C1NS(=O)(=O)c2ccccc21` the figure was 2.59%.
Under `COc1ccc(-c2nc(N3CCCC3)[nH]c(=O)c2C#N)cc1` stands 11.9%; under `CCCc1nn2c(=O)cc(COc3cccc(NC(=O)c4ccco4)c3)nc2s1`, -12.5%.
On to `S=c1[nH]nc(CSc2nc3ccccc3s2)n1Cc1ccccc1`, for which the “hERG current change (%, negative = inhibition) at 10uM” value is 11.9%.
`CCOc1ccccc1NC(=S)NC(=O)CCCOc1ccc(Cl)cc1Cl`: the “hERG current change (%, negative = inhibition) at 10uM” value is reported as -2.01%.
With `COc1ccc(-c2cn(-c3ccc(C)cc3)c(=O)n2CC(=O)Nc2ccc(OC)cc2OC)cc1` the figure was -7.1%; with `NC(=O)CSc1nc(C23CC4CC(CC(C4)C2)C3)nc2ccccc12`, -25.3%.
With `NC1=NC(c2cn[nH]c2-c2cccc(F)c2)n2c(nc3ccccc32)N1` (centres unmarked) the figure was 3.61%; with `CC1CCN(c2ccccc2NC(=O)c2ccc([N+](=O)[O-])o2)CC1`, 25%; with `O=C(/C=C/c1ccc2c(c1)OCO2)NCCSCc1ccc(Cl)cc1`, 17.5%.
Under `COc1ccc(C2=NN(CN3C(=O)C(=O)c4ccccc43)C(c3ccc(Br)cc3)C2)cc1` (centres unmarked) stands 11.2%.
For `COCCCNC(=O)c1ccc(Cn2c(=O)c3ccccc3n(CC(=O)NCc3ccco3)c2=O)cc1`, the “hERG current change (%, negative = inhibition) at 10uM” value was found to be 6.71%.
Under `C#CCOCCOCCOCCNc1nc(N2CCN(C(=O)CCCCCCCCCCNC(=O)[C@H](CO)n3cc(CCCSC)nn3)CC2)nc(N2CCN(C(=O)CCCCCCCCCCNC(=O)[C@H](CCCN=C(N)N)n3cc(C[C@@H](C)CC)nn3)CC2)n1` stands 25.7%; under `FC(F)(F)c1cccc(NCc2n[nH]c(=S)n2C2CCCCC2)c1`, 41.2%; under `O=C(CCn1nnc2ccccc21)Nc1nnc(Cc2ccccc2)s1`, 5.59%.
